# Results: the supplement of paper PMC12217912
# The other results are listed elsewhere or left out. The full chains were built here from the parent and the listed change. Values near 0.05 are background.
# B1: TEV protease; numbered along this chain (parent)
# chain: MGESLFKGPRDYNPISSSICHLTNESDGHTTSLYGIGFGPFIITNKHLFRRNNGTLVVQSLHGVFKVKDTTTLQQHLVDGRDMIIIRMPKDFPPFPQKLKFREPQREERICLVTTNFQTKSMSSMVSDTSCTFPSGDGIFWKHWIQTKDGQCGSPLVSTRDGFIVGIHSASNFTNTNNYFTSVPKNFMELLTNQEAQQWVSGWRLNADSVLWGGHKVFMVKPEEPFQPVKEATQL
# Variants of: B1
# Test: raw area under fraction-flipped curve 0-4 h after induction (AUC4h, not background-subtracted), DNA-recorder readout of cleavage of the substrate (dimensionless); higher = more cleavage of the substrate by the protease variant
# Settings: temperature: 34 °C; time window: 0-4 h after rhamnose induction
# Protocol: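 In vivo DNA recorder in E. coli TOP10(DE3) ΔrhaA at 34 °C. Each TEVp single-site mutant (parent TEVp 0) is paired with a single-site variant of the 7-mer TEVs (canonical ENLYFQ|S). The substrate sits between flexible linkers in a Bxb1-sfGFP-TEVs-SsrA fusion, so cleavage stabilises Bxb1 and speeds flipping of a recombination array, read by NGS. The value is the raw area under the fraction-flipped curve over 0-4 h after rhamnose induction (AUC4h), with ≥20 reads per time point. It is not background-subtracted; inactive controls average about 0.047.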
# 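Note: Bxb1 expression induced with 0.2% (w/v) L-rhamnose at OD600 near 0.5, cultures sampled hourly, flipped fraction per protease–substrate barcode pair counted by paired-end Illumina sequencing.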
Variant,area with substrate ENLYFAS,area with substrate ENLYFFS,area with substrate ENLYFHS,area with substrate ENLYFIS,area with substrate ENLYFKS,area with substrate ENLYFLS,area with substrate ENLYFMS,area with substrate ENLYFNS,area with substrate ENLYFPS,area with substrate ENLYFVS,area with substrate ENLYFWS,area with substrate ENLYFYS,area with substrate ENLYFCS,area with substrate ENLYFES,area with substrate ENLYFGS,area with substrate ENLYFRS,area with substrate ENLYFTS,area with substrate ENLYFDS,area with substrate ENLYFSS
T129Q,0.0312,0.0682,0.0414,0.0588,0.0701,0.0437,0.0734,0.0766,0.0604,0.0621,0.0616,0.04,–,–,–,–,–,–,–
T129W,0.0381,0.0833,0.0516,0.056,0.0628,0.0586,0.0631,0.0717,0.0574,–,0.0567,0.0585,0.0581,0.0569,0.0656,0.065,0.0795,–,–
T129I,0.0531,0.027,–,0.0549,0.0534,0.0797,0.07,–,–,0.0611,–,0.0397,–,0.0688,0.0773,0.0681,–,0.0605,–
M83W,0.0582,0.0578,–,0.0608,0.064,–,0.0621,0.0557,0.065,0.0525,–,0.0638,–,–,–,0.0561,0.0545,0.0515,–
D69W,0.0502,0.0818,0.0588,0.0483,–,0.0766,0.0378,–,0.0685,0.0418,–,0.0476,0.0476,0.0505,–,–,0.0615,–,–
D69L,0.0449,0.069,0.0656,0.0622,0.062,–,0.0652,0.0491,0.0556,0.0693,0.0583,0.0742,0.05,–,–,0.0647,0.0559,0.0543,–
T115N,0.0653,–,–,–,–,–,0.0477,0.0471,0.0676,0.0639,0.0614,0.0681,–,0.0989,–,–,0.0413,0.0564,–
V126W,0.0584,0.0697,0.0629,0.0515,0.0631,0.0745,–,0.0607,0.0608,0.0611,0.0595,0.0583,0.0569,0.0585,–,0.0671,0.0572,–,0.062
Q105M,0.058,0.0829,0.0562,0.063,0.0653,–,0.0634,0.06,0.0524,0.0633,0.0461,–,0.0608,0.0647,–,0.0689,0.0619,0.0413,–
S124W,0.0494,0.0729,0.079,0.0616,–,0.0598,–,0.0507,0.0654,0.0631,–,–,–,0.0461,–,0.047,–,0.0503,–
D82Y,0.0497,0.0677,–,0.0587,0.0519,–,0.0638,0.0504,0.0703,0.0514,–,–,0.0596,0.0602,–,–,0.0533,–,–
P94G,0.0396,0.0719,–,0.0538,0.0598,–,0.101,0.0672,–,–,0.0528,–,0.0618,0.0827,0.0573,0.0549,0.0628,–,–
T72D,0.0494,0.0695,–,0.0529,0.0701,0.0358,0.0627,0.0643,0.0595,0.0523,–,–,0.0618,0.0655,0.0565,0.0673,0.0639,0.0508,–
S123M,0.0643,0.086,0.0576,0.0596,0.0548,0.0781,0.0721,–,–,0.0463,–,0.0525,0.0501,–,–,0.0818,0.0309,–,–
S123A,0.0603,0.0511,0.0365,0.0511,0.059,0.0587,0.0664,–,0.0675,0.0681,–,–,–,0.057,–,–,–,0.0469,–
L77N,0.0651,0.0652,–,0.0636,0.0543,0.0532,0.0546,0.0502,0.0582,–,–,0.0563,0.0554,0.0583,–,0.0652,–,0.0422,–
L77S,0.0685,0.0714,0.0552,0.0534,–,–,0.0629,0.057,0.0632,0.0531,0.0587,0.0595,–,0.0557,0.0743,0.0551,0.0571,0.0611,0.0597
N116Q,0.0517,0.0712,0.0453,0.0541,0.0527,–,0.0614,–,0.0557,–,0.0446,–,0.0747,0.0604,0.0641,0.0636,–,0.0677,0.0509
N116D,0.0539,0.0688,0.0727,0.0629,–,0.0601,0.0623,–,0.0588,–,0.0555,0.0442,–,0.0553,0.0346,0.0575,–,–,0.0609
E107W,0.0541,0.0865,0.0688,0.0649,0.0558,0.0545,0.0657,–,0.0672,0.0301,0.0673,–,0.0557,0.066,–,–,–,–,0.0863
E107A,0.0561,0.0528,0.0697,0.0566,0.0452,0.0677,–,0.0741,0.0643,0.0536,0.0495,–,0.0444,0.0296,–,0.0723,0.0636,0.0644,0.053
S127D,0.0491,0.0203,–,0.0616,–,0.0768,0.0694,0.0574,0.0629,0.0469,0.0608,–,–,0.0667,–,–,0.0726,0.053,0.061
S127P,0.0592,0.0645,0.0588,0.0542,–,0.0132,0.0691,–,0.057,0.0552,0.0595,0.0511,–,0.0772,–,–,0.0494,–,–
L73Y,0.0568,0.0534,0.052,0.0557,0.0652,0.0512,0.0613,0.0512,0.0568,0.0637,0.0433,0.0505,0.0477,0.0522,0.0224,–,0.0513,0.0573,0.0811
D137N,0.0604,0.067,0.062,0.0633,0.0928,0.0779,0.0628,0.0657,0.0568,0.0635,0.0543,0.0512,0.0858,0.0628,0.057,0.0443,0.0657,0.0747,0.008
